Over roughly 110,000 compounds, “z-score” has its median near -0.1; the highest 2% begin near 2. Some of the results follow.
The molecules below were run against Metabotropic glutamate receptor 8 (Rattus norvegicus) (UniProt P70579) (assay: mGluR8 Gi/Go-coupled signaling modulation – cell-based, rat, thallium flux, HTS, primary screen (AID 488969)). Conditions: HEK293 rat mGluR8, GIRK (G protein-gated inwardly rectifying potassium channel) thallium flux, FluoZin2; at 10 µM; stronger effect = higher value; submaximal glutamate (EC20) added with thallium.
Chain of UniProt P70579 (P70579 whole entry, looked up): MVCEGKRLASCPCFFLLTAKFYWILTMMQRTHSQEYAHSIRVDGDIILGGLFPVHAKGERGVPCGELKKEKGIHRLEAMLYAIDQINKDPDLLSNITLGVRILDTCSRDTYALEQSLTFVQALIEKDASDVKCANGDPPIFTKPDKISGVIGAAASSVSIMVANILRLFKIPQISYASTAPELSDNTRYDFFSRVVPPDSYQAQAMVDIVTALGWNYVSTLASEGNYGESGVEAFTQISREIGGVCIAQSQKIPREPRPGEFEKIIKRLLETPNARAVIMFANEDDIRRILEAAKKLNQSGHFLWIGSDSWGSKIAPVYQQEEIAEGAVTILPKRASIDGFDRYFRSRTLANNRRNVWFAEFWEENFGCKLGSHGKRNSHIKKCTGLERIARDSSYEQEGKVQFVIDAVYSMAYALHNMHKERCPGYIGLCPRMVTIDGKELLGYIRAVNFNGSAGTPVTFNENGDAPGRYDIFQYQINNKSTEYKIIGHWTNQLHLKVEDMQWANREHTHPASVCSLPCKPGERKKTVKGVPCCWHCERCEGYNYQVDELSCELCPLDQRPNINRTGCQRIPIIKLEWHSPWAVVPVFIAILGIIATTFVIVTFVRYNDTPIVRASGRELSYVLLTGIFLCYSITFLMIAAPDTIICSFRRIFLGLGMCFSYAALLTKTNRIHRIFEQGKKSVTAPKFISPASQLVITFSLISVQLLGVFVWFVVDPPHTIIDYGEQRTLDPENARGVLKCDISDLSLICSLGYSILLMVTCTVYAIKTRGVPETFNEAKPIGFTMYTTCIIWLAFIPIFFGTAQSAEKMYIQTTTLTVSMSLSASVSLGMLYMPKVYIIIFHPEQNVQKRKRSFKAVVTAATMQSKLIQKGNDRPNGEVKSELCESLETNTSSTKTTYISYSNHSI
`CCOC(=O)CC(=O)CSc1nc2c(cc1C#N)CCC2` was tested, and the z-score was 2.18.
With `CCOC(=O)c1cnn(-c2ccccc2)c1NC(=O)CCl` the z-score was 0.0652.
In the case of `O=C(CN1C(=O)/C(=C\c2ccc(C(F)(F)F)cc2)Sc2ccccc21)NCc1ccco1`, the z-score is reported as 0.00192.
For `COc1cccc(C2CC(c3c(F)cccc3Cl)n3nc(N)nc3N2)c1` (stereo unspecified), the z-score was 0.971.
Molecule `O=C(/C=C/Nc1ccc([N+](=O)[O-])cc1Br)c1cccc2ccccc12` has a z-score of 0.124.
With `CC(C)CCNC(=O)C(c1ccncc1)N(Cc1cccs1)C(=O)Cn1nnc(-c2ccc(F)cc2)n1` (stereo unspecified) the z-score was -0.198.
`O=C(N/N=C\c1ccc(-c2ccc([N+](=O)[O-])cc2)o1)c1ccc2c(c1)OCO2` was tested, and the z-score was -0.452.
`Cc1c(N=C2NC(=O)/C(=C/c3ccc(O)cc3)S2)c(=O)n(-c2ccccc2)n1C` showed a z-score of 0.207.
`CCCCCn1c(=O)c(F)cn(Cc2ccc(OC)c([N+](=O)[O-])c2)c1=O` was tested, and the z-score was 0.252.
With `O=C(CNS(=O)(=O)c1ccc(F)cc1)N1CCN(c2ccc(F)cc2)CC1` the z-score was 0.426.
`CCOc1ccc(Nc2nc(Cc3nnc(SCC(=O)N(CC)CC)n3C)cs2)cc1` was tested, and the z-score was -0.144.
For `CCOC(=O)/C(C#N)=C\N(C)C`, the z-score was -0.141.
`COc1ccc(OC)c(CN(CCN2CCOCC2)C(=O)Nc2ccccc2)c1` was tested, and the z-score was 0.588.
`CCOC(=O)N1CCN(C(=O)NC23CC4CC(CC(C4)C2)C3)CC1` showed a z-score of -0.174.
`COC(=O)C1CCN(C(=O)Cc2ccc(OC)c(OC)c2)CC1` gave a z-score of -0.15.
With `COc1cccc(/C=C/c2ccncc2)c1OC` the z-score was 0.776.
With `CC(C)C1=Nc2cccc3cccc(c23)N1` the z-score was -0.0614.
For `CC1(C)CC(C)(c2ccc(O)cc2O)N(c2ccc3ccccc3c2)C(=S)N1` (stereo unspecified), the z-score was 0.207.
`COc1cc2c(cc1NC(=O)/C=C/c1ccc([N+](=O)[O-])cc1)oc1ccccc12` showed a z-score of 0.0287.
`Clc1ccc2nc(C3CCN(Cc4ccccc4)CC3)[nH]c2c1` gave a z-score of -0.115.
With `CCc1nc(C)cn1S(=O)(=O)c1cc(OC)c(C)cc1C` the z-score was -1.12.
`O=C(N/N=C/c1ccsc1)c1cc(O)cc(O)c1` showed a z-score of -0.223.
`Cc1nn(Cc2ccccc2)c(C)c1NC(=O)c1ccc([N+](=O)[O-])cc1[N+](=O)[O-]` showed a z-score of -0.302.
Work on `O=C(c1cc2ccccc2oc1=O)N(Cc1ccccc1)Cc1ccc2c(c1)OCO2` yielded a z-score of -0.492.
`O=C(Nc1cccc(F)c1)c1cc(S(=O)(=O)NCCC2=CCCCC2)ccc1F` showed a z-score of -0.143.
`Cc1cc(-c2n[nH]c(=S)n2Cc2ccco2)nn1C` was tested, and the z-score was -0.0547.
For `COc1ccc(NC(=O)c2cccnc2N2CCCCC2)cc1`, the z-score was -0.363.
`CCc1cc(=O)oc2cc3occ(C)c3cc12` was tested, and the z-score was -0.331.
`CCOc1ccc2ccccc2c1/C=N/n1cncn1` showed a z-score of -0.41.
`Cc1ccc2[nH]c3c(N4CCOCC4)ncnc3c2c1` gave a z-score of 0.00257.
`Cc1ccc(Cl)cc1N1CCN(C(=O)c2cc3c(=O)n(C)c4ccccc4c3n2C)CC1` showed a z-score of 0.437.
Molecule `CCN(CC)S(=O)(=O)c1ccc2nc(NC(=O)c3cccs3)sc2c1` has a z-score of -0.178.
For `CC(=O)Nc1ccc(-c2csc(NC(=O)c3ccc(C)o3)n2)cc1`, the z-score was -0.019.
For `Cc1ccc(/C(=N\O)c2oc3c(C)c4oc(=O)cc(C)c4cc3c2C)cc1`, the z-score was -1.24.
Work on `N#CC1=C(N)S[C@H](C(=O)C23CC4CC(CC(C4)C2)C3)[C@H]1c1ccncc1` yielded a z-score of 1.66.
Work on `Cc1ccc(Nc2nc(N)nc(CN3CCC(C)CC3)n2)c(C)c1` yielded a z-score of -0.000421.
Molecule `O=C(CCSc1nnc(-c2ccncc2)o1)Nc1cccc2ccccc12` has a z-score of -0.0136.
For `Cc1cccc(C(=O)O/N=C(\N)Cc2ccc([N+](=O)[O-])cc2)c1`, the z-score was 0.123.
`c1ccc(Cn2cnc3ccccc32)cc1` gave a z-score of 0.828.
`COc1ccccc1NS(=O)(=O)c1ccccc1C#N` was tested, and the z-score was 0.296.
In the case of `Cc1noc(C)c1S(=O)(=O)N1CCCC(C(=O)NC2CCCCC2)C1` (stereo unspecified), the z-score is reported as -0.104.
In the case of `CC(=O)Nc1ccc(C(=O)OCC(=O)N(Cc2ccccc2)C(C)(C)C)cc1`, the z-score is reported as -0.178.
With `O=C1[C@@H]2C(Cc3ccc(O)cc3)NC3(C(=O)Nc4ccc(F)cc43)[C@@H]2C(=O)N1c1ccccc1` (stereo partly specified) the z-score was 0.0633.
`Cc1ccc(SCc2c(C#N)c3ccccc3n2C)cc1` gave a z-score of 0.42.
`CC(C)OCC(O)CN` (stereo unspecified) gave a z-score of 0.255.
`O=C1CC(SCc2nc3ccccc3[nH]2)C(=O)N1c1ccc(F)cc1` (stereo unspecified) gave a z-score of 0.0187.
For `CC(C)(C)n1nnnc1C(c1cc2cc3c(cc2[nH]c1=O)OCO3)N1CCN(c2ccccc2)CC1` (stereo unspecified), the z-score was -0.356.
For `Cc1cc(C)cc(OCc2nnc(SCC(=O)Nc3ccccc3)o2)c1`, the z-score was 0.0889.
`CC(=O)OC(C(=O)NC1CCCCC1)c1ccccc1` (stereo unspecified) showed a z-score of -0.037.
Work on `CCOC(=O)N1N=C(c2ccccc2)CC1(O)C(F)(F)F` (stereo unspecified) yielded a z-score of -0.18.
For `CCC(=O)Nc1cccc(NC(=S)NC(=O)Cc2ccccc2)c1`, the z-score was -0.281.
`CCOC(=O)N1CCN(C(=O)C(NC(=O)C2CCC(C)CC2)C(C)C)CC1` (stereo unspecified) gave a z-score of -0.06.
`Cn1c(=O)c2c(nc(Br)n2CCSc2nnnn2-c2ccccc2)n(C)c1=O` showed a z-score of 0.288.
In the case of `CCNC(=O)/C=C1\NC(C)(C)Cc2c1ccc1ccccc21`, the z-score is reported as -0.461.
`Cc1ccc(-c2cc(C(F)F)n3ncc(C(=O)Nc4c(C)nn(Cc5ccccc5Cl)c4C)c3n2)cc1` gave a z-score of -0.591.
Work on `CC(C)NC(=O)NC(=O)COC(=O)c1ccccc1Oc1ccccc1` yielded a z-score of -1.55.
With `COc1ccc(C2(CN(C(C)=O)C(C)=O)CCCC2)cc1OC` the z-score was 0.926.
Work on `COc1ccc2c(c1)C(C)CC(C)(C)N2C(=O)CSc1nc2ccccc2s1` (stereo unspecified) yielded a z-score of -0.0495.
Work on `CCOC(=O)COc1c(Br)cc(/C=C2\SC(=O)N(CC(=O)N3CCCC3)C2=O)cc1OC` yielded a z-score of -0.0897.
For `COc1ccc(CN2CCn3ncc(C(=O)Nc4ccc(Cl)cc4Cl)c3C2=O)cc1`, the z-score was -0.0573.
With `COc1ccc(C(=O)c2sc(NC(C)C)nc2N)cc1OC` the z-score was 0.954.
`CC(C(=O)O)N1C(=O)CSc2ncccc21` (stereo unspecified) was tested, and the z-score was -0.732.
`COc1ccc(/C=N/NC(=O)c2ccc(Cn3cc([N+](=O)[O-])cn3)o2)c(OC)c1C` showed a z-score of -0.253.
`COc1ccc(C(=S)N2CCCCCC2)cc1` gave a z-score of -0.075.
`CCOC(=O)C1CCN(C(=O)C2CCN(S(=O)(=O)CC)CC2)CC1` showed a z-score of -0.558.
`O=C(NCCCn1ccnc1)c1csc2ccccc12` was tested, and the z-score was 0.115.
Molecule `CCc1ccc(CNCc2cccnc2)cc1` has a z-score of 0.22.
For `COC(=O)c1ccc(/C=N/Nc2nc(-c3ccccc3)cs2)cc1`, the z-score was 0.584.
For `CC(=O)Nc1ccc(-c2csc(NCc3ccco3)n2)cc1`, the z-score was -0.435.
`O=C(Nc1ccccc1OC(F)F)c1ccc(Br)o1` was tested, and the z-score was -0.353.
`O=C(CSc1nc2ccc([N+](=O)[O-])cc2[nH]1)c1ccc(Cl)cc1` gave a z-score of -0.137.
With `COc1ccc2nc(NC(=O)C3CCCN(S(=O)(=O)c4cccs4)C3)sc2c1` (stereo unspecified) the z-score was -0.119.
`CCCCNC(=O)c1cccnc1SCC(=O)Nc1ccccc1OC` gave a z-score of -0.302.
Work on `CC(C)(C)n1ncc2c(=O)n(CC(=O)OCc3ccccc3)cnc21` yielded a z-score of -1.62.
Molecule `O=C(COC(=O)C1CC2C=CC1C2)Nc1ccccc1` (stereo unspecified) has a z-score of 0.0334.
Work on `COC(=O)c1cccc(N2C(=O)c3cccnc3C2=O)c1` yielded a z-score of -0.446.
Molecule `Cc1onc(-c2ccccc2)c1C(=O)NC(=S)NNC(=O)c1ccc(O)cc1` has a z-score of -0.0811.
`CCOc1cccc2c1OC1(C)CC2NC(=O)N1c1cccc(Cl)c1` (stereo unspecified) was tested, and the z-score was 0.891.
`COc1ccc(NC(=O)C2CCN(C(=O)c3ccccc3)CC2)c(OC)c1` showed a z-score of -1.36.
`CC(NC(=O)c1ccncc1)C(c1cccs1)N1CCOCC1` (stereo unspecified) was tested, and the z-score was -0.25.
In the case of `CCc1nnc(NC(=O)CSc2ccc(-c3nc4ccc(C)cc4[nH]3)cn2)s1`, the z-score is reported as -0.634.
With `O=C(NCc1nnc(SCC(=O)N2CCN(c3ccccc3)CC2)o1)c1ccco1` the z-score was -0.268.
`COc1ccc(C(=O)c2cnc3cc4c(cc3c2C)OCO4)cc1` was tested, and the z-score was 0.728.
`N#CC1=C2N=C(N)c3c(sc4c3CCCCC4)N2C2=C(C(=O)CCC2)C1c1ccccc1` (stereo unspecified) gave a z-score of -0.145.
`COc1ccc(C2CC2/C(=N/OC(=O)c2cccs2)c2ccccc2)cc1` (stereo unspecified) was tested, and the z-score was 0.0512.
For `CCCNC(=O)c1ccccc1NC(=O)CN(c1ccccc1OCC)S(C)(=O)=O`, the z-score was 0.0372.
`O=P(O)(CCc1ccccn1)CN1CCCCC1` gave a z-score of -0.0234.
Work on `O=C(O)c1ccc2c(c1)C(=O)N(N1C(=O)c3ccccc3C1=O)C2=O` yielded a z-score of -0.141.
`O=C(Cc1cccc2ccccc12)NNC(=O)c1cccs1` showed a z-score of 0.554.
Work on `COc1ccc(-c2cc(C(F)(F)F)nc(SCC(=O)N3CC(C)OC(C)C3)n2)cc1OC` (stereo unspecified) yielded a z-score of -1.34.
With `O=C(CSc1nnc(SCc2ccc(Cl)cc2)s1)N/N=C/c1ccccc1Cl` the z-score was -1.47.
`COCC(C)n1c(C)cc(C(=O)COC(=O)CNC(=O)c2ccccc2)c1C` (stereo unspecified) gave a z-score of -0.22.
`COc1cccc(NC(=O)c2nnn(CCc3ccccc3)c2N)c1` gave a z-score of -1.07.
`COCCn1c(=NC(=O)/C=C/c2ccccc2)sc2cc(NC(C)=O)ccc21` showed a z-score of -0.286.
For `CC(SCc1ccccc1)C(=O)N/N=C/c1ccc2c(c1)OCO2` (stereo unspecified), the z-score was -0.211.
Molecule `CCCn1c(=N)n(CC(=O)c2ccco2)c2ccccc21` has a z-score of -0.051.
In the case of `CC(=O)c1c(C)[nH]c(C(=O)CSc2nnc(C3CCCCC3)n2N)c1C`, the z-score is reported as -0.783.
Molecule `O=C(c1scc2c1CCCC2)N1CCCCC1` has a z-score of -0.475.
For `C=CCNc1nc(-c2sc(NC(C)=O)nc2C)cs1`, the z-score was 1.33.
`Cc1ccc(NC(=S)NNC(=S)NCc2ccccc2)cc1` was tested, and the z-score was 0.905.
With `O=C(Cn1cc(C(=O)c2cccs2)c2ccccc21)NCC1CCCO1` (stereo unspecified) the z-score was -0.355.
`O=C1Nc2cc(S(=O)(=O)N3CCCC3)ccc2N2CCCC12` (stereo unspecified) gave a z-score of -0.878.
For `CCCCCCCCCc1nc(N)n[nH]1`, the z-score was -0.191.
`CCOC(=O)Cc1csc(N)n1` was tested, and the z-score was -0.109.
For `Cc1ccc(S(=O)(=O)CCc2nnc(NC(=O)c3cnccn3)s2)cc1`, the z-score was 0.152.
Molecule `CCN(CC)S(=O)(=O)c1ccc(N2CCOCC2)c(NC(=O)Cc2ccccc2F)c1` has a z-score of -0.0749.
`FC(F)(F)c1nnc2c(Sc3ccc(Cl)cc3)nc3ccccc3n12` was tested, and the z-score was 0.0577.
In the case of `CCOc1ccc2nc(NC(=O)C3CCCN(S(=O)(=O)c4cccc5nonc45)C3)sc2c1` (stereo unspecified), the z-score is reported as -1.42.
`CCC(=O)NC(NC(=S)Nc1c(C)n(C)n(-c2ccccc2)c1=O)C(Cl)(Cl)Cl` (stereo unspecified) was tested, and the z-score was -0.491.
Work on `C1CCCN(CCCCN2CCCCCC2)CC1` yielded a z-score of 1.95.
Work on `COc1cc(C#CC#CCN2CCCCC2)ccc1O` yielded a z-score of 2.82.

From PubChem BioAssay AID488969 (Vanderbilt High Throughput Screening Facility, 2010)
